# Measurements taken from the supplement of paper PMC12217912.
# This is one part of the list. Sequences were assembled here from the parent chain. Inactive controls read about 0.05.
# B1: TEV protease; numbered along this chain (parent)
# chain: MGESLFKGPRDYNPISSSICHLTNESDGHTTSLYGIGFGPFIITNKHLFRRNNGTLVVQSLHGVFKVKDTTTLQQHLVDGRDMIIIRMPKDFPPFPQKLKFREPQREERICLVTTNFQTKSMSSMVSDTSCTFPSGDGIFWKHWIQTKDGQCGSPLVSTRDGFIVGIHSASNFTNTNNYFTSVPKNFMELLTNQEAQQWVSGWRLNADSVLWGGHKVFMVKPEEPFQPVKEATQL
# Variants of: B1
# Test: raw area under fraction-flipped curve 0-4 h after induction (AUC4h, not background-subtracted), DNA-recorder readout of cleavage of the substrate (dimensionless); higher = more cleavage of the substrate by the protease variant
# Conditions: temperature: 34 °C; time window: 0-4 h after rhamnose induction
# Protocol: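 In vivo DNA recorder in E. coli TOP10(DE3) ΔrhaA at 34 °C. Each TEVp single-site mutant (parent TEVp 0) is paired with a single-site variant of the 7-mer TEVs (canonical ENLYFQ|S). The substrate sits between flexible linkers in a Bxb1-sfGFP-TEVs-SsrA fusion, so cleavage stabilises Bxb1 and speeds flipping of a recombination array, read by NGS. The value is the raw area under the fraction-flipped curve over 0-4 h after rhamnose induction (AUC4h), with ≥20 reads per time point. It is not background-subtracted; inactive controls average about 0.047.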
# 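Further: Bxb1 expression induced with 0.2% (w/v) L-rhamnose at OD600 near 0.5, cultures sampled hourly, flipped fraction per protease–substrate barcode pair counted by paired-end Illumina sequencing.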
Variant,area with substrate ENLAFQS,area with substrate ENLDFQS,area with substrate ENLEFQS,area with substrate ENLGFQS,area with substrate ENLHFQS,area with substrate ENLIFQS,area with substrate ENLKFQS,area with substrate ENLNFQS,area with substrate ENLPFQS,area with substrate ENLQFQS
MGESLFKGPRDYNPISSSICHLTNESDGHTTSLYGIGFGPFIITNKHLFRRNNGTLVVQSLHGVFKVKDTTTLQQHLVDGRDMIIIRMPKDFPPFPQKLKFREPQREERICLVTTNFQTKSMSSMVSDTSCTFPSGDGIFWKHWIQTKDGQCGSPLVSTRDGFIVGIHSASNFTNTNNYFTSVPKNFMETLTNQEAQQWVSGWRLNADSVLWGGHKVFMVKPEEPFQPVKEATQL [L190T],0.0863,0.0635,0.0542,0.0634,0.0717,0.0931,0.0825,0.0654,0.0661,0.0864
MGESLFKGPRDYNPISSSICHLTNESDGHTTSLYGIGFGPFIITNKHLFRRNNGTLVVQWLHGVFKVKDTTTLQQHLVDGRDMIIIRMPKDFPPFPQKLKFREPQREERICLVTTNFQTKSMSSMVSDTSCTFPSGDGIFWKHWIQTKDGQCGSPLVSTRDGFIVGIHSASNFTNTNNYFTSVPKNFMELLTNQEAQQWVSGWRLNADSVLWGGHKVFMVKPEEPFQPVKEATQL [S60W],0.0525,0.0642,0.0692,0.0634,0.0907,–,0.0864,0.0388,0.0662,–
MGESLFKGPRDYNPISSSICHLTNESDGHTTSLYGIGFGPFIITNKHLFRRNNGTLVVQSLHGVFKVKDTTTLQQHLVDGRDMIIIRMPKDFPPFPQKLKFREPQREERICLVTTNFQTKSMSCMVSDTSCTFPSGDGIFWKHWIQTKDGQCGSPLVSTRDGFIVGIHSASNFTNTNNYFTSVPKNFMELLTNQEAQQWVSGWRLNADSVLWGGHKVFMVKPEEPFQPVKEATQL [S124C],0.0664,–,0.0731,–,0.0713,0.0726,0.0691,0.0351,0.0473,0.0587
MGESLFKGPRDYNPISSSICHLTNESDGHTTSLYGIGFGPFIITNKHLFRRNNGTLVVQSLHGVFKVKDTTTLQQHLVDGRDMIIIRMPKDFPPFPQKLKFREPQREERICLVTTNFQTKSMSSMVSDTSCTFPSGDGIFWKHWIQTKDGQCCSPLVSTRDGFIVGIHSASNFTNTNNYFTSVPKNFMELLTNQEAQQWVSGWRLNADSVLWGGHKVFMVKPEEPFQPVKEATQL [G153C],0.0525,0.0448,–,–,–,–,–,0.0437,0.0311,0.046
MGESLFKGPRDYNPISSSICHLTNESDGHTTSLYGIGFGPFIITNKHLFRRNNGTLVVQSLHGVFKVKDTTTLQQGLVDGRDMIIIRMPKDFPPFPQKLKFREPQREERICLVTTNFQTKSMSSMVSDTSCTFPSGDGIFWKHWIQTKDGQCGSPLVSTRDGFIVGIHSASNFTNTNNYFTSVPKNFMELLTNQEAQQWVSGWRLNADSVLWGGHKVFMVKPEEPFQPVKEATQL [H76G],0.0893,–,–,–,–,–,0.0512,0.0494,–,–
MGESLFKGPRDYNPISSSICHLTNESDGHTTSLYGIGFGPFIITNKHLFRRNNGTLVVQSLHGVPKVKDTTTLQQHLVDGRDMIIIRMPKDFPPFPQKLKFREPQREERICLVTTNFQTKSMSSMVSDTSCTFPSGDGIFWKHWIQTKDGQCGSPLVSTRDGFIVGIHSASNFTNTNNYFTSVPKNFMELLTNQEAQQWVSGWRLNADSVLWGGHKVFMVKPEEPFQPVKEATQL [F65P],0.0236,–,0.0423,–,–,–,0.0512,0.0668,–,–
MGESLFKGPRDYNPISSSICHLTNESDGHTTSLYGIGFGPFIITNKHLFRRNNGTLVVQSLHGVFKVKDTTTLQQHLVDGRDMIIIRMPKDFPPFPQKLKFRMPQREERICLVTTNFQTKSMSSMVSDTSCTFPSGDGIFWKHWIQTKDGQCGSPLVSTRDGFIVGIHSASNFTNTNNYFTSVPKNFMELLTNQEAQQWVSGWRLNADSVLWGGHKVFMVKPEEPFQPVKEATQL [E103M],0.0674,–,0.0653,0.0608,–,0.107,0.0724,–,0.0616,–
MGWSLFKGPRDYNPISSSICHLTNESDGHTTSLYGIGFGPFIITNKHLFRRNNGTLVVQSLHGVFKVKDTTTLQQHLVDGRDMIIIRMPKDFPPFPQKLKFREPQREERICLVTTNFQTKSMSSMVSDTSCTFPSGDGIFWKHWIQTKDGQCGSPLVSTRDGFIVGIHSASNFTNTNNYFTSVPKNFMELLTNQEAQQWVSGWRLNADSVLWGGHKVFMVKPEEPFQPVKEATQL [E3W],0.0636,0.0639,0.0781,–,0.0586,0.0788,0.0878,0.0717,0.0604,–
MGESLFKGNRDYNPISSSICHLTNESDGHTTSLYGIGFGPFIITNKHLFRRNNGTLVVQSLHGVFKVKDTTTLQQHLVDGRDMIIIRMPKDFPPFPQKLKFREPQREERICLVTTNFQTKSMSSMVSDTSCTFPSGDGIFWKHWIQTKDGQCGSPLVSTRDGFIVGIHSASNFTNTNNYFTSVPKNFMELLTNQEAQQWVSGWRLNADSVLWGGHKVFMVKPEEPFQPVKEATQL [P9N],0.0822,–,–,–,–,0.0921,–,–,–,0.0616
MGESLFKGPRDYNPISSSICHLTNESDGHTTSLYGIGFGPFIITNKHLFRRNNGTLVVQSLHGVFKVKDTTTLQQHLVDGRDMIIIRMPKDFWPFPQKLKFREPQREERICLVTTNFQTKSMSSMVSDTSCTFPSGDGIFWKHWIQTKDGQCGSPLVSTRDGFIVGIHSASNFTNTNNYFTSVPKNFMELLTNQEAQQWVSGWRLNADSVLWGGHKVFMVKPEEPFQPVKEATQL [P93W],0.0712,0.06,–,–,0.0555,–,0.0325,–,–,–

# Same assay, conditions: temperature: 34 °C; time window: 0-4 h after rhamnose induction
Variant,area with substrate ENLRFQS,area with substrate ENLSFQS,area with substrate ENLWFQS,area with substrate ENLFFQS,area with substrate ENLLFQS,area with substrate ENLCFQS,area with substrate ENLMFQS,area with substrate ENLVFQS,area with substrate ENLTFQS
MGESLFKGPRDYNPISSSICHLTNESDGHTTSLYGIGFGPFIITNKHLFRRNNGTLVVQSLHGVFKVKDTTTLQQHLVDGRDMIIIRMPKDFPPFPQKLKFREPQREERICLVTTNFQTKSMSSMVSDTSCTFPSGDGIFWKHWIQTKDGQCGSPLVSTRDGFIVGIHSASNFTNTNNYFTSVPKNFMETLTNQEAQQWVSGWRLNADSVLWGGHKVFMVKPEEPFQPVKEATQL [L190T],0.0832,0.0648,0.0837,–,–,–,–,–,–
MGESLFKGPRDYNPISSSICHLTNESDGHTTSLYGIGFGPFIITNKHLFRRNNGTLVVQWLHGVFKVKDTTTLQQHLVDGRDMIIIRMPKDFPPFPQKLKFREPQREERICLVTTNFQTKSMSSMVSDTSCTFPSGDGIFWKHWIQTKDGQCGSPLVSTRDGFIVGIHSASNFTNTNNYFTSVPKNFMELLTNQEAQQWVSGWRLNADSVLWGGHKVFMVKPEEPFQPVKEATQL [S60W],0.07,–,–,0.0725,0.0733,–,–,–,–
MGESLFKGPRDYNPISSSICHLTNESDGHTTSLYGIGFGPFIITNKHLFRRNNGTLVVQSLHGVFKVKDTTTLQQHLVDGRDMIIIRMPKDFPPFPQKLKFREPQREERICLVTTNFQTKSMSCMVSDTSCTFPSGDGIFWKHWIQTKDGQCGSPLVSTRDGFIVGIHSASNFTNTNNYFTSVPKNFMELLTNQEAQQWVSGWRLNADSVLWGGHKVFMVKPEEPFQPVKEATQL [S124C],0.0726,0.0723,–,0.0809,0.0687,0.0754,–,–,–
MGESLFKGPRDYNPISSSICHLTNESDGHTTSLYGIGFGPFIITNKHLFRRNNGTLVVQSLHGVFKVKDTTTLQQHLVDGRDMIIIRMPKDFPPFPQKLKFREPQREERICLVTTNFQTKSMSSMVSDTSCTFPSGDGIFWKHWIQTKDGQCCSPLVSTRDGFIVGIHSASNFTNTNNYFTSVPKNFMELLTNQEAQQWVSGWRLNADSVLWGGHKVFMVKPEEPFQPVKEATQL [G153C],0.0503,–,–,–,–,–,0.0644,–,–
MGESLFKGPRDYNPISSSICHLTNESDGHTTSLYGIGFGPFIITNKHLFRRNNGTLVVQSLHGVFKVKDTTTLQQGLVDGRDMIIIRMPKDFPPFPQKLKFREPQREERICLVTTNFQTKSMSSMVSDTSCTFPSGDGIFWKHWIQTKDGQCGSPLVSTRDGFIVGIHSASNFTNTNNYFTSVPKNFMELLTNQEAQQWVSGWRLNADSVLWGGHKVFMVKPEEPFQPVKEATQL [H76G],0.0695,0.0636,–,–,–,–,–,–,–
MGESLFKGPRDYNPISSSICHLTNESDGHTTSLYGIGFGPFIITNKHLFRRNNGTLVVQSLHGVPKVKDTTTLQQHLVDGRDMIIIRMPKDFPPFPQKLKFREPQREERICLVTTNFQTKSMSSMVSDTSCTFPSGDGIFWKHWIQTKDGQCGSPLVSTRDGFIVGIHSASNFTNTNNYFTSVPKNFMELLTNQEAQQWVSGWRLNADSVLWGGHKVFMVKPEEPFQPVKEATQL [F65P],0.0133,–,–,0.0395,–,0.0603,–,–,–
MGESLFKGPRDYNPISSSICHLTNESDGHTTSLYGIGFGPFIITNKHLFRRNNGTLVVQSLHGVFKVKDTTTLQQHLVDGRDMIIIRMPKDFPPFPQKLKFRMPQREERICLVTTNFQTKSMSSMVSDTSCTFPSGDGIFWKHWIQTKDGQCGSPLVSTRDGFIVGIHSASNFTNTNNYFTSVPKNFMELLTNQEAQQWVSGWRLNADSVLWGGHKVFMVKPEEPFQPVKEATQL [E103M],0.0764,0.0587,0.0801,0.0824,–,–,–,0.0791,–
MGWSLFKGPRDYNPISSSICHLTNESDGHTTSLYGIGFGPFIITNKHLFRRNNGTLVVQSLHGVFKVKDTTTLQQHLVDGRDMIIIRMPKDFPPFPQKLKFREPQREERICLVTTNFQTKSMSSMVSDTSCTFPSGDGIFWKHWIQTKDGQCGSPLVSTRDGFIVGIHSASNFTNTNNYFTSVPKNFMELLTNQEAQQWVSGWRLNADSVLWGGHKVFMVKPEEPFQPVKEATQL [E3W],0.0936,–,–,0.0976,–,0.0657,0.0774,–,0.0657
MGESLFKGNRDYNPISSSICHLTNESDGHTTSLYGIGFGPFIITNKHLFRRNNGTLVVQSLHGVFKVKDTTTLQQHLVDGRDMIIIRMPKDFPPFPQKLKFREPQREERICLVTTNFQTKSMSSMVSDTSCTFPSGDGIFWKHWIQTKDGQCGSPLVSTRDGFIVGIHSASNFTNTNNYFTSVPKNFMELLTNQEAQQWVSGWRLNADSVLWGGHKVFMVKPEEPFQPVKEATQL [P9N],–,–,0.0693,–,0.0803,–,–,–,–
MGESLFKGPRDYNPISSSICHLTNESDGHTTSLYGIGFGPFIITNKHLFRRNNGTLVVQSLHGVFKVKDTTTLQQHLVDGRDMIIIRMPKDFWPFPQKLKFREPQREERICLVTTNFQTKSMSSMVSDTSCTFPSGDGIFWKHWIQTKDGQCGSPLVSTRDGFIVGIHSASNFTNTNNYFTSVPKNFMELLTNQEAQQWVSGWRLNADSVLWGGHKVFMVKPEEPFQPVKEATQL [P93W],0.0618,–,–,–,–,0.0651,0.0877,–,–
